# Test results from the supplement of paper PMC3334620.
# The full ranking holds about 33,000 sequences; the median of “E-score (-0.5 to 0.5)” is about -0.053, and the highest 2% start at about 0.37. Some of the results follow.
# Molecular target: Hap1 (UniProt P0CE41)
# Test: PBM E-score (8-mer binding enrichment) (E-score (-0.5 to 0.5)); higher = stronger / more preferred TF binding; most listed sequences are background and not binding sites
# Settings: protein concentration: 200 nM; construct: GST-DNA-binding domain
# Protocol: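 Universal 'all 10-mer' protein binding microarrays (Agilent AMADID 015681) probed with GST-tagged S. cerevisiae TFs (full-length or DBD) made by in vitro transcription/translation (PURExpress), about 100-200 nM. Bound TF was detected with fluorescent anti-GST. Each ungapped 8-mer (which stands for itself and its reverse complement) is scored by the PBM enrichment score (E-score), a modified Wilcoxon-Mann-Whitney statistic from -0.5 to +0.5, computed with the Universal PBM Analysis Suite. Scale: above 0.35 generally sequence-specific binding.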
# UniProt P0CE41, sequence (P0CE41 whole entry): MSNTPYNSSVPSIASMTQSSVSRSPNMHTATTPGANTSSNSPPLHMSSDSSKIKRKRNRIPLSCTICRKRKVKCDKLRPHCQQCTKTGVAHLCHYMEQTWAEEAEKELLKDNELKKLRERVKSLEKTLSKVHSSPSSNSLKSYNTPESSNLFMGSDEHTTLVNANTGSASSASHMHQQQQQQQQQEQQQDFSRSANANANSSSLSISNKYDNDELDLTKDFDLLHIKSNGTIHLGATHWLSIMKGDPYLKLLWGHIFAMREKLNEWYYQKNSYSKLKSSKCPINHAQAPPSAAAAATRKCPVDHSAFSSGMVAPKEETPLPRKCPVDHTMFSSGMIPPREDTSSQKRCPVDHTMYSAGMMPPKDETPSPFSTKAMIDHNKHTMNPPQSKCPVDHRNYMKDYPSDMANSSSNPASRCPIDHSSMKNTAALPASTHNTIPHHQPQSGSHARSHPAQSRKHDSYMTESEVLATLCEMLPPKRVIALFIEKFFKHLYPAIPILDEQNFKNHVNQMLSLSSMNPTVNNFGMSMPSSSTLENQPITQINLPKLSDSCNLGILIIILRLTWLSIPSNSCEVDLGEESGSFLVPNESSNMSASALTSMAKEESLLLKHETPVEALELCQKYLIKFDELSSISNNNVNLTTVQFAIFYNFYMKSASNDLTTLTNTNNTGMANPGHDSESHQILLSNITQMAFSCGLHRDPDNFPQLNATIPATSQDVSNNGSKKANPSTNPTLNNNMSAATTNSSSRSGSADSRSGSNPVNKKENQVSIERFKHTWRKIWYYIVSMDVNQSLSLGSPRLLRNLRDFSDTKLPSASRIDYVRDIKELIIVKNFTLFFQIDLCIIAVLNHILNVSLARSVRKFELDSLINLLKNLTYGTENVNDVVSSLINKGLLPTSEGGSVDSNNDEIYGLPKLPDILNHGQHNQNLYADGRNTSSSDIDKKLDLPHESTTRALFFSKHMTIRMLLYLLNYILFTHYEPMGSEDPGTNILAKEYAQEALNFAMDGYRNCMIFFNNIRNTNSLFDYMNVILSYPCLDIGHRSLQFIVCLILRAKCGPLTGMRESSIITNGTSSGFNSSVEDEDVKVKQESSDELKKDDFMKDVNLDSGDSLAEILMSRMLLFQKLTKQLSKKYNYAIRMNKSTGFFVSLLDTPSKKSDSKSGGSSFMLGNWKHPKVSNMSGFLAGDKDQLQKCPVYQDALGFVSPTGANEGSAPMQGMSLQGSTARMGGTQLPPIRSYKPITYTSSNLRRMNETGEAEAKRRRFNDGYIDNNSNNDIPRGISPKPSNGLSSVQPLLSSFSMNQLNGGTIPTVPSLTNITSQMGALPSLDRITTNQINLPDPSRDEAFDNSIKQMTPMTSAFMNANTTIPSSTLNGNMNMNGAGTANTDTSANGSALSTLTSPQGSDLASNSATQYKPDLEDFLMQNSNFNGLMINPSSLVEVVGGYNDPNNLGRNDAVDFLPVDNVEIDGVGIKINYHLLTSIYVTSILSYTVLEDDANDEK
row,Sequence,PBM E-score
1,CAGCGGAG,0.245
2,CAACAGCA,-0.0939
3,CAAACGAG,-0.0889
4,ATATTGAA,-0.0564
5,AATCATAG,-0.0307
6,CTAGTGAA,-0.0412
7,CCAGGGAC,-0.185
8,ATGTCTTC,-0.139
9,ACCCAAAC,0.0644
10,ATCCCCAC,0.00986
11,ATTCTTTG,-0.158
12,ATTAAGGA,-0.0105
13,AGCTGCGA,-0.0156
14,GCCATTCA,0.0532
15,GCTGATGA,-0.269
16,ACGAAGCG,-0.317
17,CAGGTCCA,-0.0172
18,CTTGCGCC,-0.0164
19,CACCACTG,-0.311
20,ATCGACGA,0.0392
21,CCGACTAC,0.249
22,AAGAGGCC,0.122
23,AGCGCCCT,0.0634
24,GTTCGTGA,-0.126
25,CAAAGTGG,-0.149

row,Sequence,PBM E-score
1,AGTACGTA,-0.11
2,GGTAGACC,0.122
3,GTGACCGA,0.298
4,GACCGACC,0.266
5,CCAAAGTC,-0.103
6,ATGTGTCC,0.124
7,GGCTGGAA,-0.0106
8,CGTTTTGC,-0.185
9,AACTAAGT,-0.0909
10,CCCTGCAG,-0.0886
11,CCTTCACG,-0.154
12,GGCCAAGA,-0.144
13,CGTGAGAG,-0.158
14,GCATTACA,-0.0591
15,CAAAAACC,0.19
16,GCTGGGGA,-0.176
17,CTCGCACA,-0.0196
18,CTGACAGC,-0.168
19,GGGTTAGA,0.0639
20,CATCAACG,-0.0133
21,ACATCACT,-0.236
22,GATAGGAC,-0.0118
23,TGGTACCA,0.0153
24,ACGACATG,-0.195
25,CAGCAATC,-0.0047

row,Sequence,PBM E-score
1,AAAACCCG,0.4
2,CTATTCAC,0.0922
3,AAGAGTGT,-0.182
4,CAAGAAGA,-0.185
5,AACATGAT,-0.0998
6,CACGAACC,-0.0667
7,AAGCGATC,0.0805
8,TAATCCTA,0.035
9,AAACACAC,-0.0893
10,ACCTACAT,-0.113
11,CGCAAGAG,0.0588
12,GGGGCTAC,0.0486
13,GGATAGAC,-0.113
14,ACGGTACT,0.183
15,AGCACACG,-0.198
16,AAAATAAC,-0.143
17,CACGTGAA,-0.18
18,TATGGAAA,0.0763
19,CGGACATC,0.365
20,CGCCGAAA,0.359
21,CGCGGACC,0.312
22,ATATGGCG,0.0887
23,AGTGGATC,0.133
24,GGTCAAGA,-0.135
25,CAGGGTAA,-0.177

row,Sequence,PBM E-score
1,CAGGATCA,-0.0263
2,CCTACTAG,-0.248
3,AAGTACGT,-0.253
4,CGGGATCA,0.22
5,ATCGCTTG,-0.218
6,AGCCCAAT,-0.252
7,AGGCAATC,-0.0887
8,CCTTTGTA,-0.187
9,CCACTGGG,-0.145
10,ACTTTTCA,-0.288
11,GTCGGCAC,0.065
12,ACGAATGC,-0.225
13,ACGATCAT,-0.223
14,GGTACGAC,0.025
15,CATCCCAA,-0.292
16,CAGACAGA,-0.226
17,GCCGAGAC,0.283
18,CACTCCGC,0.156
19,GCACTCCA,-0.208
20,ACTTTCAG,-0.0767
21,CATATCTC,0.0335
22,CTCGATGC,-0.171
23,GGCTACTA,-0.00226
24,ATTTATTC,0.142
25,GGTACATA,0.18

row,Sequence,PBM E-score
1,GATCGATA,-0.051
2,CCACAGAA,-0.15
3,GAAAACGC,-0.0874
4,ATTGGGTA,-0.211
5,AATCGCAC,-0.23
6,AACACGAT,0.00865
7,ACTTGCCA,-0.229
8,CTCATAGC,-0.292
9,AGGGGGAT,-0.02
10,GAATTTTA,0.111
11,ATGTGAGG,-0.116
12,ACTAGAAC,0.0117
13,AGGGTTCC,0.1
14,CCGGCGAC,0.276
15,ACAATAAC,-0.0359
16,GCAACTCA,-0.0789
17,CTACCCAG,-0.27
18,TAGCCTGA,-0.271
19,CCGCATCC,0.0271
20,ACAAAAGG,0.059
21,CTGAAGCA,-0.353
22,ATTATAGA,-0.0881
23,CACTTAGG,-0.148
24,CGGTTACG,0.244
25,CTCTTCGC,-0.0711

row,Sequence,PBM E-score
1,CAGGGGAG,-0.137
2,GGCCCTTA,0.138
3,ACGTAATA,-0.113
4,ATTCTGCC,0.158
5,CAGAGACC,-0.0501
6,AATAGAAG,-0.108
7,TAGCAGGA,-0.0716
8,AAGTTCTG,-0.13
9,GGGCGAAA,0.216
10,AACCTCGG,0.33
11,GGTTAGAC,0.105
12,CTTAGAAA,-0.207
13,CTGCTCGC,0.106
14,CTGGATAC,-0.176
15,CTCGCCTC,-0.0174
16,CGCGCGGA,0.266
17,GGAATGCA,0.0613
18,AGAGACTG,-0.227
19,AGTTAGAT,-0.278
20,ATCACCGC,0.234
21,ACCGAGCA,0.359
22,ACTCGCCA,-0.217
23,GTTTATCA,0.0548
24,ACGCGTTA,-0.0916
25,ACGAGTTG,-0.199

row,Sequence,PBM E-score
1,CATCAGAA,-0.326
2,GAAACCCC,0.176
3,AGGGCTGC,-0.121
4,GGGTTTGA,0.0488
5,GTGTGTCA,-0.159
6,ATTTCGGA,0.415
7,GGACACGA,0.128
8,CGCTTCCG,0.278
9,AACTAGGC,-0.147
10,AGCAAGAA,-0.0762
11,AGTTCCCG,0.298
12,CAGTCCTA,-0.309
13,CAGCGATG,-0.0731
14,GAGCCAAC,-0.0736
15,GAGTTGAC,-0.0936
16,ACCGGACT,0.408
17,AGCTTAAG,-0.174
18,ATGGCCTG,-0.106
19,AAAGAGCC,-0.12
20,CTTTGCTC,-0.0184
21,TAGCTGAA,-0.158
22,GTCTGCAC,-0.0233
